# From the supplement of paper PMC12217912
# The list shows a part of the results. Sequences were assembled here from the parent chain. Inactive controls read about 0.05.
# B1: TEV protease; numbered along this chain (parent)
# chain: MGESLFKGPRDYNPISSSICHLTNESDGHTTSLYGIGFGPFIITNKHLFRRNNGTLVVQSLHGVFKVKDTTTLQQHLVDGRDMIIIRMPKDFPPFPQKLKFREPQREERICLVTTNFQTKSMSSMVSDTSCTFPSGDGIFWKHWIQTKDGQCGSPLVSTRDGFIVGIHSASNFTNTNNYFTSVPKNFMELLTNQEAQQWVSGWRLNADSVLWGGHKVFMVKPEEPFQPVKEATQL
# Variants of: B1
# Experiment: raw area under fraction-flipped curve 0-4 h after induction (AUC4h, not background-subtracted), DNA-recorder readout of cleavage of the substrate (dimensionless); higher = more cleavage of the substrate by the protease variant
# Conditions: temperature: 34 °C; time window: 0-4 h after rhamnose induction
# 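Also: Bxb1 expression induced with 0.2% (w/v) L-rhamnose at OD600 near 0.5, cultures sampled hourly, flipped fraction per protease–substrate barcode pair counted by paired-end Illumina sequencing.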
Variant,area with substrate ENLYDQS,area with substrate ENLYEQS,area with substrate ENLYGQS,area with substrate ENLYHQS,area with substrate ENLYIQS,area with substrate ENLYMQS,area with substrate ENLYNQS,area with substrate ENLYPQS,area with substrate ENLYQQS,area with substrate ENLYTQS,area with substrate ENLYVQS,area with substrate ENLYWQS,area with substrate ENLYKQS,area with substrate ENLYLQS,area with substrate ENLYRQS,area with substrate ENLYSQS,area with substrate ENLYYQS
MGESLFKGPRDYNPISSSICHLTNESDGHTTSLYGIGFGPFIITNKHLFRRNNGTLVVQSLHGVFKVKDTTTLQQHLVDKRDMIIIRMPKDFPPFPQKLKFREPQREERICLVTTNFQTKSMSSMVSDTSCTFPSGDGIFWKHWIQTKDGQCGSPLVSTRDGFIVGIHSASNFTNTNNYFTSVPKNFMELLTNQEAQQWVSGWRLNADSVLWGGHKVFMVKPEEPFQPVKEATQL [G80K],0.0492,0.0628,0.0584,0.0696,0.103,0.0664,0.0721,0.0756,0.0698,0.0769,0.11,0.0681,,,,,
MGESLFKGPRDYNPISSSICHLTNESDGHTTSLYGIGFGPFIITNKHLFRRNNGTLVVQSLHGVFKVKDTTTLQQHLVDNRDMIIIRMPKDFPPFPQKLKFREPQREERICLVTTNFQTKSMSSMVSDTSCTFPSGDGIFWKHWIQTKDGQCGSPLVSTRDGFIVGIHSASNFTNTNNYFTSVPKNFMELLTNQEAQQWVSGWRLNADSVLWGGHKVFMVKPEEPFQPVKEATQL [G80N],0.0472,,,0.0778,0.107,0.0848,0.0658,0.0639,0.044,,0.128,0.113,0.0216,0.108,0.0817,,
MGESLFKGPRDYNPISSSICHLTNESDGHTTSLYGIGFGPFIITNKHLFRRNNGTLVVQSLHGVFKVKDTTTLQQHLVDGRDMIIIRMPKDFPPFKQKLKFREPQREERICLVTTNFQTKSMSSMVSDTSCTFPSGDGIFWKHWIQTKDGQCGSPLVSTRDGFIVGIHSASNFTNTNNYFTSVPKNFMELLTNQEAQQWVSGWRLNADSVLWGGHKVFMVKPEEPFQPVKEATQL [P96K],0.0601,0.0646,0.0679,0.0699,0.115,0.0776,0.0687,0.0876,0.0552,,0.131,0.0877,0.0645,,,,
MGESLFKGPRDYNPISSSICHLTNESDGHTTSLYGIGFGPFIITNKHLFRRNNGTLVVQSLHGVFKVKDTTTLQQHLVDGRDMIIIRMPKDFPPFPQKLKFREPQREERICLVTTNFQTKSMSSMVSDTSCTFPSGDGIFWKHSIQTKDGQCGSPLVSTRDGFIVGIHSASNFTNTNNYFTSVPKNFMELLTNQEAQQWVSGWRLNADSVLWGGHKVFMVKPEEPFQPVKEATQL [W144S],0.07,0.0781,,0.082,,,,0.0815,0.0635,,,0.0832,0.0628,0.0682,0.0616,0.0782,
MGESLFKGPRDYNPISSSICHLTNESDGHTTSLYGIGFGPFIITNKHLFRRNNGTLVVQSLHGVFKVKDTTTLQQHLVDGRDMIIIRMPKDFPPFPQKLKFREPQREERICLVTTNFQTKSMSSMVSDTSCTFPSGDGIFWKHPIQTKDGQCGSPLVSTRDGFIVGIHSASNFTNTNNYFTSVPKNFMELLTNQEAQQWVSGWRLNADSVLWGGHKVFMVKPEEPFQPVKEATQL [W144P],0.0515,0.0523,0.0695,0.0694,0.121,0.0793,0.06,0.0611,0.0623,0.078,,0.0705,0.0586,0.0846,0.0732,,0.0587
MGESLFKGPRDYNPISSSICHLTNESDGHTTSLYGIGFGPFIITNKHLFRRNNGTLVVQSLHGVFKVKDTTTLQQHLVDGRDMIIIRMPKDFPPFPQKLKFREPQREERICLVTTNFQTKSMSSMVSDTSCTFPSGDGIFWKHWIQTKDGQCGSPLVSTRDGFIVGIHSASNFTNTNNYFTSVPKNFMELLTNQEAQQWTSGWRLNADSVLWGGHKVFMVKPEEPFQPVKEATQL [V200T],0.0506,0.0708,0.0602,,,0.0839,0.0522,0.0738,0.0712,,0.101,,0.0617,0.0635,,,
MGESLFKGPRDYNPISSSICHLTNESDGHTTSLYGIGFGPFIITNKHLFRRNNGTLVVQSLHGVFKVKDTTTLQQHLVDGRDMIIIRMPKDFPPFPQKLKFREPQREERICLVTTNFQTKSMSSMVSDTSCTFPSGDGIFWKHWIQTKDGQCGSPLVSTRDGFIVGILSASNFTNTNNYFTSVPKNFMELLTNQEAQQWVSGWRLNADSVLWGGHKVFMVKPEEPFQPVKEATQL [H168L],0.0583,0.0641,0.0636,0.0585,0.0642,0.0618,0.0764,,,0.0259,0.0671,,0.0491,0.0366,,0.0654,0.0572
MGESLFKGPRDYNPISSSICHLTNESDGHTTSLYGIGFGPFIITNKHLFRRNNGTLVVQSLHGVFKVKDTTTLQQHLVDGRDMIIIRMPKDFPPFPQKLKFREPQREERICLVTTNFQTKSMSSMVSDTSCTFPSGDGIFWKHWIQTKDGQCGSPLVSTRDGFIVGINSASNFTNTNNYFTSVPKNFMELLTNQEAQQWVSGWRLNADSVLWGGHKVFMVKPEEPFQPVKEATQL [H168N],0.0544,0.0639,,0.0646,,,,0.0307,,0.0525,0.059,,0.0529,,,,0.0646
MGESLFKGPRDYNPISSSICHLTNESDGHTTSLYGIGFGPFIITNKHLFRRNNGTLVVQSLHGVFKVKDTTTLQQHLVDGRDMIIIRMPKDFPPFPQKLKFREPQREERICLVTTNFQTKSMSSMVSDTSCTFPSGDGIFWKHWIQTKDGQCGSPLVSTRDGFIVGIHSASNFTNTNNYFTSVGKNFMELLTNQEAQQWVSGWRLNADSVLWGGHKVFMVKPEEPFQPVKEATQL [P184G],0.0478,0.0778,0.0065,0.0686,0.101,0.0609,0.0618,,0.0575,0.0525,,,,,0.0792,,0.0711
MGESLFKGPRDYNPISSSICHLTNESDGHTTSLYGIGFGPFIITNKHLFRRNNGTLVVQSLHGVFKVKDTTTLQQHLVDGRDMIIIRMPKDFPPFPQKLKFREPQREERICLVTTNFQTKSMSSMVSDTSCTFPSGDGIFWKHWIQTKDGQCGSPLVSTRDGFIVGIHSASNFTNTNNYFTSVPKNFMELLTNQEAQQWVSGWRLNADSVLWGGHKVFMVKPEEPFQPVKEKTQL [A232K],0.0713,,,0.0793,0.16,,0.0621,0.0735,0.0822,,,,0.0591,,,0.0824,0.0796
